In publication PMC11995724, “Antibiotic target discovery by integrated phenotypic and activity-based profiling of electrophilic fragments” (Cell chemical biology, 2025):
Among all 3,200 compounds or so, about 110 (3.4%) showed an effect of 50% or more. The list shows a part of the results.

test system: T1, V. cholerae SAD30; parameters: species or system S. aureus MSSA476 (TSB) or V. cholerae SAD30 (LB); 384-well bacterial growth screen at 25 uM, OD600 relative to DMSO control; settings: relative growth, OD600, LB; 25 µM; inhibitor
T1 construct: SAD30

Compound	% of control remaining [%]
O=C(CCl)NC(CC1CC1)c1ccc(Cl)cn1 (stereo not drawn) [6-F19, 2-chloro-N-[1-(5-chloropyridin-2-yl)-2-cyclopropylethyl]acetamide]	83.2686
O=C(CCl)NCc1cc(C(F)F)no1 [6-H08, 2-chloro-N-{[3-(difluoromethyl)-1,2-oxazol-5-yl]methyl}acetamide]	92.824
CC(Cl)C(=O)NCC1CN(S(C)(=O)=O)C1 (stereo not drawn) [7-C04, 2-chloro-N-[(1-methanesulfonylazetidin-3-yl)methyl]propanamide]	94.4986
CCc1ccc(-c2nn(-c3ccccc3)cc2C=C(C#N)C(N)=O)cc1 [8-O22, 2-cyano-3-[3-(4-ethylphenyl)-1-phenyl-1H-pyrazol-4-yl]prop-2-enamide]	74.0313
Cc1cccc(C)c1NC(=O)C(C#N)=Cc1ccc(OC(F)F)cc1 [8-A11, 2-cyano-3-[4-(difluoromethoxy)phenyl]-N-(2,6-dimethylphenyl)prop-2-enamide]	85.588
COc1ccccc1C(NC(=O)C(C)Cl)c1ccco1 (stereo not drawn) [5-H19, 2-chloro-N-[(furan-2-yl)(2-methoxyphenyl)methyl]propanamide]	83.5557
CC(Cl)C(=O)NCc1ccc2cnn(C)c2c1 (stereo not drawn) [7-D21, 2-chloro-N-[(1-methyl-1H-indazol-6-yl)methyl]propanamide]	83.7932
O=C(CCl)NC1CCN(C(=O)C2COc3ccccc3O2)CC1 (stereo not drawn) [5-C09, 2-chloro-N-[1-(2,3-dihydro-1,4-benzodioxine-2-carbonyl)piperidin-4-yl]acetamide]	95.9966
CC(=O)Nc1ccc(C2=NN(C(=O)CCl)C(c3ccco3)C2)cc1 (stereo not drawn) [4-G22, N-{4-[1-(2-chloroacetyl)-5-(furan-2-yl)-4,5-dihydro-1H-pyrazol-3-yl]phenyl}acetamide]	115.074
C=CC(=O)N1CC(C(N)=O)Oc2ccccc21 (stereo not drawn) [1-A09, 4-(prop-2-enoyl)-3,4-dihydro-2H-1,4-benzoxazine-2-carboxamide]	89.2377
N#CC(=Cc1ccc(O)c([N+](=O)[O-])c1)C(=O)Nc1ccccc1C(=O)O [9-G10, 2-[2-cyano-3-(4-hydroxy-3-nitrophenyl)prop-2-enamido]benzoic acid]	83.4126
C=CC(=O)NCc1c(C(F)(F)F)coc1C [1-E17, N-{[2-methyl-4-(trifluoromethyl)furan-3-yl]methyl}prop-2-enamide]	87.4439
O=C1C=CC(=O)N1CCc1ccccc1F [10-G03, 1-[2-(2-fluorophenyl)ethyl]-2,5-dihydro-1H-pyrrole-2,5-dione]	22.2872
C=CC(=O)NC(C)c1ccc(S(=O)(=O)N(C)C)cc1 (stereo not drawn) [3-A20, N-{1-[4-(dimethylsulfamoyl)phenyl]ethyl}prop-2-enamide]	121.731
CC(Cl)C(=O)N[C@H]1C[C@H](Cn2cncn2)C1 (stereo partly drawn) [6-D20, 2-chloro-N-[(1r,3r)-3-[(1H-1,2,4-triazol-1-yl)methyl]cyclobutyl]propanamide]	88.7288
CC(C)Cn1c(N)c(C(=O)CCl)c(=O)[nH]c1=O [10-F08, 6-amino-5-(2-chloroacetyl)-1-(2-methylpropyl)-1,2,3,4-tetrahydropyrimidine-2,4-dione]	101.305
CC(Cl)C(=O)Nc1ccccc1 (stereo not drawn) [5-F10, 2-chloro-N-phenylpropanamide]	95.3242
CC(Cl)C(=O)Nc1cccc2ccccc12 (stereo not drawn) [5-N12, 2-chloro-N-(naphthalen-1-yl)propanamide]	89.9443
Cc1ccc(C=C(C#N)C(=O)NC2CCCCC2)cc1C [8-G10, 2-cyano-N-cyclohexyl-3-(3,4-dimethylphenyl)prop-2-enamide]	68.3209
N#CC(=Cc1cc2cc(F)ccc2o1)C(=O)NC(N)=O [8-C22, {2-cyano-2-[(5-fluoro-1-benzofuran-2-yl)methylidene]acetyl}urea]	90.2107
N#CC(=Cc1ccsc1)C(=O)NCc1ccco1 [9-H22, 2-cyano-N-[(furan-2-yl)methyl]-3-(thiophen-3-yl)prop-2-enamide]	94.6975
C=CC(=O)N1CCC(C(=O)N(C)C(C)c2sc(CC)nc2C)CC1 (stereo not drawn) [2-P04, N-[1-(2-ethyl-4-methyl-1,3-thiazol-5-yl)ethyl]-N-methyl-1-(prop-2-enoyl)piperidine-4-carboxamide]	102.702
CN(C1CCCCC1)S(=O)(=O)c1ccc(NC(=O)CCl)cc1 [5-E03, 2-chloro-N-{4-[cyclohexyl(methyl)sulfamoyl]phenyl}acetamide]	101.713
CC(Cl)C(=O)Nc1ccc2c(c1)CCC2 (stereo not drawn) [5-C19, 2-chloro-N-(2,3-dihydro-1H-inden-5-yl)propanamide]	86.9181
CC(Cl)C(=O)Nc1cccc(S(=O)(=O)N2CCCCC2)c1 (stereo not drawn) [5-L12, 2-chloro-N-[3-(piperidine-1-sulfonyl)phenyl]propanamide]	82.7151
CC(=O)c1ccccc1NC(=O)C(C)Cl (stereo not drawn) [5-O19, N-(2-acetylphenyl)-2-chloropropanamide]	97.5097
C=CC(=O)Nc1cccc(OC(C)(C)C)c1 [3-G14, N-[3-(tert-butoxy)phenyl]prop-2-enamide]	90.3253
CC(=O)c1c(C)[nH]c(C(=O)C(C)Cl)c1C (stereo not drawn) [10-P22, 1-(4-acetyl-3,5-dimethyl-1H-pyrrol-2-yl)-2-chloropropan-1-one]	103.955
NC(=O)c1ccc(NC(=O)CCl)cc1 [4-P04, 4-(2-chloroacetamido)benzamide]	124.391
C=CC(=O)Nc1ccc(N(C)S(=O)(=O)CC)cc1 [3-H06, N-[4-(N-methylethanesulfonamido)phenyl]prop-2-enamide]	94.7363
